Reference: PubChem BioAssay AID1159614 (National Center for Advancing Translational Sciences (NCATS), 2016)
Screen size: about 45,000 compounds; about 65 (0.1%) were called active. The call rests on the fitted dose curve; in most records, active means well fitted activation curve with a large enough effect; inconclusive means small, poorly fitted or top-dose-only effect; inactive means no such curve, though single readings can be large or run the other way. Some of the results follow.

These compounds were tested against Galactocerebrosidase (Homo sapiens) (UniProt P54803) (assay: A Novel Cell-Based Assay to Identify Small Molecules for B -Galactocerebrosidase). Settings: 145M-Twi-hGALC-G270D cells (Twitcher mouse brain line with human GALC G270D), HMU-beta-Gal fluorescence, 48 h; series mostly up to 57.5 µM; activation: at the top concentration.
Method in brief: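 Brain-derived Twitcher mouse 145M-Twi cells stably expressing human GALC-G270D or wild-type GALC, treated live, then residual GALC activity read by fluorescence of HMU-b-Gal substrate (0.1 mM final) in citrate-phosphate buffer pH 5.2 with sodium taurocholate. Signal increase indicates enhancement.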
Further: 0% is about no effect; nearly all actives have a fitted effect of over 65% in size.

UniProt P54803, sequence (P54803 whole entry, looked up): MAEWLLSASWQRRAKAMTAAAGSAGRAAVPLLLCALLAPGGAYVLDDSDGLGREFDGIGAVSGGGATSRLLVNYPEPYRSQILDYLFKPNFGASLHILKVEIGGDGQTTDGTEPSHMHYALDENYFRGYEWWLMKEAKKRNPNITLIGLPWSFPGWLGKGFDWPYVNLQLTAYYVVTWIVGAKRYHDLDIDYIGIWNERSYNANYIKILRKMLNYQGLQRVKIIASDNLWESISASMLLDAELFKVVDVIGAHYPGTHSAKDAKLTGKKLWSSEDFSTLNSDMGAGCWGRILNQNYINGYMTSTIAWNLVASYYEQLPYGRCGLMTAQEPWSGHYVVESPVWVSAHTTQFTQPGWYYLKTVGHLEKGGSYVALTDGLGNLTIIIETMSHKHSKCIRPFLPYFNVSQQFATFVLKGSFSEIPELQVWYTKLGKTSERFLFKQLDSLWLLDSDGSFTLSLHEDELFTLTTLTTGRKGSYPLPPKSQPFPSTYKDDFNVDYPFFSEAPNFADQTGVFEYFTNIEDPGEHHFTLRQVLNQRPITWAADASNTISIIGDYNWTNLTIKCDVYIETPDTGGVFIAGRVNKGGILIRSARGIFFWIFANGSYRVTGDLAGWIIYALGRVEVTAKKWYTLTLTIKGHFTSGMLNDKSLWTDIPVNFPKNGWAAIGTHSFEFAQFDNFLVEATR

activation, inactive:
O=C(c1cc2ccccc2oc1=O)N1CCN(c2ccc(F)cc2)CC1 -3.56%
Cc1cccc(CSCc2ccc(C(=O)NCCc3ccccc3)o2)c1 0.517%
CC(C)c1ccc2oc3nc(N)c(C(=O)O)cc3c(=O)c2c1 -21.7%
N#Cc1c(-n2ncnc2-c2ccccc2C(F)(F)F)sc2c1CCCCC2 -7.62%
Cc1ccc(NCc2cccn2-c2nnc(N3CCC(C(=O)NCCC(C)C)CC3)s2)cc1 -6.47%
CCOC(=O)c1ccc(Nc2c(-c3cccc(O)c3)nc3nc[nH]n23)cc1 -13.1%
CCOc1cc(-c2ccc(OC(=O)c3ccc(C)cc3)c(OC)c2)cc(=O)c2c(C)oc(C)c12 -27.4%
Nc1c(-c2nc(-c3ccccc3)no2)nnn1CC(=O)Nc1cccc(F)c1 -17.1%
CCN(CC)CCN(C(=O)c1ccco1)c1nc2cc(C)cc(C)c2s1 -7.84%
CC(=O)c1ccc(NC(=O)CN(C)S(=O)(=O)c2cc3c(cc2Cl)NC(=O)CO3)cc1 -30.4%
CCCN(CCC)S(=O)(=O)c1ccc(C(=O)Nc2cccc(-c3nc4ccccc4[nH]3)c2)cc1 -16.2%
CC1CCC(NC(=O)c2ccc(CS(=O)(=O)c3cccc(C(F)(F)F)c3)o2)CC1 (configuration not stated) -6%
O=C(NCc1cccs1)c1ccc(CSc2nc3ccncc3n2Cc2ccccc2)cc1 -3.31%
Cc1ccc(C)c(Cn2c(=O)n(Cc3ccccc3)c(=O)c3c2c2cc(C)ccc2n3C)c1 -15.7%
CCOc1ccc(S(=O)(=O)NCCc2csc3nc(-c4ccc(F)cc4)nn23)cc1 -1.15%
COc1cccc(C2=NS(=O)(=O)N(C)C(C(=O)Nc3ccccc3SC)=C2)c1 -9.93%
COc1cc(NC(=O)CNS(=O)(=O)c2cccs2)cc(OC)c1OC -16%
COc1ccc(-c2cc(C(=O)Nc3cccc(O)c3)on2)cc1OC -10.7%
Fc1ccc(CSc2nc(NCc3ccccc3)c3ccccc3n2)cc1 -9.43%
COc1ccc(CNC(=O)Cn2c(=O)cc(C)c3c(C)nn(-c4cccc(Cl)c4C)c32)cc1 -15.6%
CCOC(=O)c1ccc(NC(=O)Cn2c(=O)cc(C(F)(F)F)c3c(C)nn(C)c32)cc1 4.21%
Cc1ccc(C(=O)Nc2ccc(S(=O)(=O)Nc3onc(C)c3C)cc2)cc1 1.51%
Cc1ccc(Cl)cc1N1CCN(CCCNC(=O)C2COc3ccccc3C2)CC1 (configuration not stated) 2.7%
Cn1c(=O)[nH]c2cc(-c3noc(-c4ccc(Br)cc4)n3)ccc21 -1.45%
Cc1cccc(-c2nn3c(=O)cc(CN4CCN(C(=O)/C=C/c5ccccc5)CC4)nc3s2)c1 -1.68%
COc1ccccc1Nc1nc(-c2ccccc2F)nc2ccccc12 -49.8%
CCC(C)c1ccc2oc(-c3ccc(NC(=O)c4cc5ccccc5o4)cc3)nc2c1 (configuration not stated) -14.4%
Cc1cccc(Cn2c(=O)n3nc(-c4ccccc4)nc3c3ccccc32)c1 -11.3%
CC(C)c1ccc(S(=O)(=O)c2nnn3c2nc(N2CCCC2)c2sccc23)cc1 1.18%
CCCC(=O)Nc1nnc(S(=O)(=O)N(C)Cc2ccc(Cl)cc2)s1 4.99%
COc1cc2c(C(=O)Nc3cc(OC)c(OC)c(OC)c3)cn(C)c(=O)c2cc1OC 0.258%
Cc1ccc(NC(=O)CSc2nnc3ccc4ccccc4n23)cc1 21.8%
O=C(NCCN1CCN(c2cccc(Cl)c2)CC1)Nc1ccccc1 -3.31%
CCc1ccc(NC(=O)c2ccc(-c3ccccc3)s2)cc1 -3.44%
O=C(CC1N=C2c3ccccc3N=C(SCc3ccc(F)cc3)N2C1=O)NCc1ccc2c(c1)OCO2 (configuration not stated) -9.6%
Cc1cccc(NC(=O)c2ccc(-c3ccccc3)s2)c1 -27.7%
CCC(Oc1ccccc1)C(=O)Nc1nnc(S(=O)(=O)N(CC)CC)s1 (configuration not stated) -13.5%
CCc1cnc2c(c1SCC(=O)NCc1ccccc1Cl)c(=O)n(C)c(=O)n2C -14.3%
CCc1ccc(NC(=O)c2cnn(-c3ccccc3)c2-n2cccc2)cc1 -12%
Cc1cccc(C(=O)NCC(c2ccco2)S(=O)(=O)c2cccs2)c1 (configuration not stated) -19.3%
CCOC(=O)C1CCN(c2ncnc3c2nc2n3CCCCC2)CC1 -3.82%
CN(C(=O)CSc1nnc(NC(=O)Nc2ccccc2)s1)c1ccccc1 -8.11%
Cc1cc(C)c(NC(=O)C2CCN(c3nc4ccccc4n4cccc34)CC2)c(C)c1 -15.2%
COc1cc2ccccc2cc1C(=O)Nc1cccc(-c2nc3cc(C)c(C)cc3o2)c1 -9.64%
COC(=O)c1c(NC(=O)c2ccc(S(=O)(=O)N3CCC(C)CC3)cc2)sc2c1CCN(C)C2 -2.23%
O=C(NCC(c1cccnc1)N1CCc2ccccc21)c1cccc(Br)c1 (configuration not stated) -5.82%
COc1ccc(-n2ncc(C(=O)NCc3ccco3)c2C2CCN(C(=O)OC(C)(C)C)CC2)cc1 -9.43%
CC(C)NC(=O)C1CCC(Cn2c(=O)c3sccc3n(Cc3ccc(F)cc3)c2=O)CC1 (configuration not stated) -12.9%
Brc1cccc(-c2nnn3c2nc(NCc2ccc4c(c2)OCO4)c2ccccc23)c1 -2.76%
CCCC(=O)N(c1ccc2oc(C)c(C(C)=O)c2c1)S(=O)(=O)c1ccc(CC)cc1 -32.5%
NCCNCCNCCNCCN -4.05% [at 11.5 µM]
COc1ccc(N2CCN(c3ncnc4c3cnn4C)CC2)cc1 -6.71%
CCOc1cccc(NC(=O)C2CC(=O)N(CC)C(=Nc3ccc(F)cc3)S2)c1 (configuration not stated) -14%
O=C1CS(=O)(=O)C2(C(=O)N(Cc3ccccc3Cl)c3ccccc32)N1c1ccc(F)cc1 (configuration not stated) -26.8%
COc1ccc(Cn2c(C(=O)O)c(CNCCc3ccco3)c3ccc(OC)cc32)cc1 -14.8%
Cc1ccc(NC(=O)/C(C#N)=C/c2ccc(-c3ccc(Cl)c(C(=O)O)c3)o2)cc1C -19%
CCCNC(=O)Cn1c(=O)n(CC2CCC(C(=O)NC)CC2)c(=O)c2sccc21 (configuration not stated) -12.4%
CCN(CC)S(=O)(=O)c1ccc2c(c1)N(CC(=O)Nc1ccccc1F)C(=O)C1CCCN21 (configuration not stated) -11.7%
CC(C)(C)c1ccc(/C=C/C(=O)Nc2ccc(S(N)(=O)=O)cc2)cc1 -22.3%
COc1cccc(NC(=O)C2CCCN(S(=O)(=O)c3cn(C(C)C)cn3)C2)c1 (configuration not stated) -10.7%
CCOc1ccc(CCNC(=O)c2cc3cccc4c3n2CCS4)cc1 -4.96%
COC(=O)c1c(-c2ccc(Cl)cc2)noc1N1CCN(c2cc(C)ccc2C)CC1 -8.53%
